Results published in PubChem BioAssay AID652104 (National Center for Advancing Translational Sciences (NCATS), 2013).
About 7,200 (1.8%) of roughly 410,000 compounds were called active. The inconclusive results got no clear call from the source; some entries with a clear call stand among them for comparison. Calls follow the shape of the dose curve; as a rule, active = well fitted activation curve with a large enough effect; inconclusive = small, poorly fitted or top-dose-only effect, or another doubt; inactive = no such curve, though single readings can be large or run the other way. Potencies of inconclusive entries are left out as doubtful fits.

Experiment: qHTS of TDP-43 Inhibitors; also: nearly all actives have a fitted effect of over 50% in size
Conditions: TDP-43 expressing yeast growth rescue, BacTiter-Glo, 24 h; series mostly up to 46.1 µM
Outline: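 Yeast cells expressing TDP-43 under galactose induction are exposed to compounds for 24 hr at 30 deg C. BacTiter-Glo luminescence measures growth, so protective compounds score as activators.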
Potency is read from the fitted curve at half-maximal effect; tags tell the direction and shape of the fitted curve.

SMILES | Potency
O=C(CSCC(=O)N1CCCCC1)Nc1nc(-c2ccccc2)c(-c2ccccc2)s1 | inconclusive [activator, single point]
CCOC(=O)c1nc(N2CCN(c3ccc(F)cc3)CC2)c2c(C)noc2n1 | inconclusive [activator, single point]
COc1ccc(OCCNC(=O)c2ccc3nc(C)c(N(C)Cc4ccc(NC(C)=O)cc4)n3c2)cc1 | inactive
CCCC(=O)NC(c1ccco1)c1cc(Cl)c2cccnc2c1O (centres undefined) | inconclusive [activator, single point]
CC1Nc2ncnc(N3CCN(c4ccccc4)CC3)c2N(Cc2ccc(Cl)cc2)C1=O (centres undefined) | inconclusive [activator, single point]
O=C(Nc1ccc(Cl)c(Cl)c1)c1ccccc1 | inconclusive [activator, full curve, poor fit]
Cc1ccc(C)c(S(=O)(=O)N2CCN(C(=O)c3ccc4ccccc4n3)CC2)c1 | inconclusive [activator, single point]
CCOC(=O)c1cnc2ccc(C(=O)OC)cc2c1Nc1ccccc1CC | inconclusive [activator, single point]
CC(=O)C1=C(C)NC(SCC(=O)c2ccc(Cl)c(Cl)c2)=C(C#N)C1c1ccco1 (centres undefined) | inactive
COCCNC(=S)N1CCC(C(=O)c2ccc(Cl)cc2)CC1 | inconclusive [activator, partial curve]
CCOc1ccc(C2c3[nH]c4ccccc4c3CCN2C(=O)Cc2cccc(OCC)c2OCC)cc1 (centres undefined) | inactive
CCOC(=O)C1=CCN(S(=O)(=O)c2ccc(F)cc2)C1c1cccc(F)c1 (centres undefined) | inconclusive [activator, single point]
Cc1cccn2c(=O)c3cc(C(=O)NC4CCCC4)n(C)c3nc12 | inconclusive [activator, single point]
CC(C)(C)n1cnc2cc(NCc3ccccc3Cl)ccc21 | inactive
CCOCCOC(=O)c1ccc(NC(=O)C2COc3ccccc3O2)cc1 (centres undefined) | inconclusive [activator, partial curve]
CCOC(=O)c1ccc(NC(=O)C2COc3ccccc3O2)cc1 (centres undefined) | inconclusive [activator, single point]
Clc1ccc(Nc2nc(-c3cccs3)cs2)nc1 | active: 8.91 µM
Cc1[nH]c2c(C)cccc2c1CCNS(=O)(=O)c1cccc([N+](=O)[O-])c1 | inconclusive [activator, full curve, poor fit]
CC(=O)c1c(COC(=O)c2ccccc2Cl)nc2ccccc2[n+]1[O-] | inconclusive [activator, single point]
